PubChem BioAssay AID488969 (Vanderbilt High Throughput Screening Facility, 2010)
The full ranking holds about 110,000 compounds; the median of “z-score” is about -0.1, and the highest 2% start at about 2. This is one part of the list. The source made the active and inactive calls.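 Rule for the calls: active = z-score in the third read window above 3 or below -3; inactive = the rest.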

molecular target: Metabotropic glutamate receptor 8 (Rattus norvegicus) (UniProt P70579); assay: rat mGluR8 modulators via GIRK flux, primary screen, cell-based, thallium flux, HTS (AID 488969); conditions: HEK293 rat mGluR8, GIRK (G protein-gated inwardly rectifying potassium channel) thallium flux, FluoZin2; at 10 µM; stronger effect = higher value; submaximal glutamate (EC20) added with thallium
UniProt P70579, sequence (P70579 whole entry, looked up): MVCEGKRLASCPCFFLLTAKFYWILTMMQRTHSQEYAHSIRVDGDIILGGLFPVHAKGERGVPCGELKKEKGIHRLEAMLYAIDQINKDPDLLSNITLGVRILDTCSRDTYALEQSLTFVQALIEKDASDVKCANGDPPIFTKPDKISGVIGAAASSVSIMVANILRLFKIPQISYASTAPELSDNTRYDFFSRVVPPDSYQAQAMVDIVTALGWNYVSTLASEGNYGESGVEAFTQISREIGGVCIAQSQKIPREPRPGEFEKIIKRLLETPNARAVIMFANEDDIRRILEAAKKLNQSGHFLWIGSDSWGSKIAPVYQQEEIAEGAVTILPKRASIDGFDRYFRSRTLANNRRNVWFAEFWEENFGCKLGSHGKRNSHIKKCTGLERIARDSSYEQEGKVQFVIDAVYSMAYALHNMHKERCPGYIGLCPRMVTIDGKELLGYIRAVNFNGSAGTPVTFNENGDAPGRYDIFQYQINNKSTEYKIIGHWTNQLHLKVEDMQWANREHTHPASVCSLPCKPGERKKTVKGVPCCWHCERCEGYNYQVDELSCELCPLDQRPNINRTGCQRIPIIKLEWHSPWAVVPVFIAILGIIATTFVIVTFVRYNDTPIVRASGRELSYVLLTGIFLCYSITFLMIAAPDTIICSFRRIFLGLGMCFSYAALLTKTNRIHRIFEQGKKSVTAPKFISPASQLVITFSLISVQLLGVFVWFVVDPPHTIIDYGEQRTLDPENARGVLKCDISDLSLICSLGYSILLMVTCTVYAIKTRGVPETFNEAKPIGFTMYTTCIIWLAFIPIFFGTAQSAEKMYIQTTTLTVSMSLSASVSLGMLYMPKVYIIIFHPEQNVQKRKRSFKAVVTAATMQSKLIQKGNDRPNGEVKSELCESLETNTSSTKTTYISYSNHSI

SMILES	z-score
Cc1ccc2nc(-c3ccc(N4C(=NC(=O)CCC(=O)O)SC5CS(=O)(=O)CC54)cc3)sc2c1 (stereo not drawn)	-0.29
Cc1cc(C)n2nc(S(=O)(=O)NCCc3ccccc3)nc2n1	0.0701
Cc1onc(-c2ccccc2Cl)c1C(=O)OCn1nnc2ccccc2c1=O	-1.33
O=C(CSc1nnc(C2CC2)n1Cc1ccccc1)N1CCN(S(=O)(=O)c2ccccc2)CC1	-0.767
O=c1[nH]ncn1-c1cccc(C(F)(F)F)c1	-0.581
COC(=O)c1ccc(CSc2nnnn2-c2ccc(C)cc2C)o1	-0.565
Cc1c(NS(=O)(=O)c2ccccc2)c(=O)n(-c2ccccc2)n1C	0.111
CCOC(=O)c1sc(=S)n(-c2ccc(Cl)cc2)c1SC	-0.0152
CC1CCCN(C(=O)CCCn2c(=S)[nH]c3ccccc3c2=O)C1 (stereo not drawn)	active: 4.5
O=C(NCCN1C(=O)S/C(=C/c2ccccc2)C1=O)C1CCCN1C(=O)c1cccs1 (stereo not drawn)	0.366
Cc1oc(C(C)(C)C)cc1C(=O)Nc1ccc(C(=O)O)cc1	0.688
COc1ccc(N(Cc2cc3ccccc3[nH]c2=O)C(=O)C2CCCO2)cc1 (stereo not drawn)	-0.0545
CC1(C)CC2CC(C)(CN2S(=O)(=O)c2ccc(N)cc2)C1 (stereo not drawn)	0.221
O=C(CCNC(=O)c1ccccc1)Nc1ccc(F)c(Cl)c1	-0.196
Cn1c(Cn2cnc([N+](=O)[O-])n2)nnc1SCC(=O)Nc1cccc(Cl)c1	0.0505
CC(=O)Nc1ccc(S(=O)(=O)N2CCN(C(=O)c3ccccc3F)CC2)cc1	0.0333
Cc1cccc(C(=O)NC(=S)Nc2ccc(Cc3ccncc3)cc2)c1	0.66
Cc1cccc2cc(CN(Cc3cccs3)Cc3nnnn3Cc3ccccc3)c(=O)[nH]c12	-0.746
CCCC12CN3CCN(CC(C3)/C1=N\NC(=O)c1ccccc1N)C2	-0.119
Nc1cc(Cl)ccc1C(=O)OCC(=O)NC1CCS(=O)(=O)C1 (stereo not drawn)	-0.00713
Cc1nc2sc(C(c3cccs3)N3CCC(C(N)=O)CC3)c(O)n2n1 (stereo not drawn)	0.0412
COc1ccccc1-c1nnc(NC(=O)c2ccc3ncsc3c2)o1	-0.241

SMILES	z-score
O=C1CN(C(=O)COC(=O)c2ccccc2NCc2ccco2)c2ccccc2N1	-0.656
COc1ccc2nc(SCC(=O)N3CCN(c4ccccc4F)CC3)c(C#N)cc2c1	0.358
CC(C)NC(=O)c1n[nH]c(=O)c2ccccc12	0.489
Cc1cccc(C(=O)NCc2nnc3c4ccccc4c(-c4ccccc4)nn23)c1	-0.742
N/C(=N\OC(=O)c1ccc([N+](=O)[O-])cc1)c1cccnc1	0.198
CCC(CC)NC(=O)c1cc(OC)c(OC)cc1[N+](=O)[O-]	-0.0685
O=C(NC(CO)c1ccccc1)c1ccco1 (stereo not drawn)	-0.0347
CCCCCCCCn1cc(C(C)=O)c(=O)[nH]c1=O	0.136
Nn1c(SCC(=O)Nc2ccc(S(=O)(=O)N3CCCC3)cc2)nnc1C(F)(F)F	1.36
O=[N+]([O-])c1cc(C=Nc2ccc3ccccc3c2)ccc1Br	-0.142
CCC(Oc1ccccc1)C(=O)NCCOC (stereo not drawn)	0.0884
Cc1cc(NS(=O)(=O)c2ccc(N3C(=O)C4C5C=CC(C5)C4C3=O)cc2)nc(C)n1 (stereo not drawn)	0.143
Cc1ccc(C)c(N2CCN(C(=O)CCn3c(=S)[nH]c4cc5c(cc4c3=O)OCO5)CC2)c1	-0.145
O=C(CCc1nc2ccccc2s1)OCC(=O)c1ccccc1	-0.21
COc1ccccc1NC(=O)Cn1cnc2sc(C(=O)NCc3ccco3)c(C)c2c1=O	-0.254
O=C(COc1ncnc2c(Cl)cc(Cl)cc12)N1CCN(S(=O)(=O)c2ccccc2)CC1	-0.496
CCCC(C)NC(=O)c1cc(Cl)ccc1OC (stereo not drawn)	-0.422
CCOC(=O)CC(NC(=O)c1cccs1)c1ccc(OCC)cc1 (stereo not drawn)	-0.563
Cc1ccc(N2C(=O)C3CC(c4ccccc4)=C4C5C=CC(C6C(=O)N(c7ccc(C)cc7)C(=O)C56)C4C3C2=O)cc1 (stereo not drawn)	-0.0459
CCN(CC)CCN1C(=O)C(O)=C(C(=O)c2sc(C)nc2C)C1c1cccnc1 (stereo not drawn)	0.718
COc1ccc(CN2CCCCC2C(=O)Nc2ccc(OC)c(OC)c2)cc1OC (stereo not drawn)	-0.107
Cc1cccc(N(C(=O)c2csnn2)C(C(=O)NC(C)(C)C)c2cccs2)c1 (stereo not drawn)	-0.155

SMILES	z-score
O=S(=O)(NCc1ccccn1)c1ccc2c(c1)OCCO2	0.456
O=C(CN1CCOCC1)N1CCc2ccccc2C(c2ccccc2)C1 (stereo not drawn)	-0.0141
C=CCCc1ccc(C#N)c(SCc2c(C(=O)OCC)c3cc(OC(C)=O)c(Br)cc3n2C)n1	-0.0256
ClC(Br)=C(n1cnc2ccccc21)n1cnc2ccccc21	-0.0289
C=CCn1c(SCc2cc(C(=O)OC)c(C)o2)nnc1-c1ccncc1	-0.0722
COC(=O)c1cc(C#N)c(Oc2ccc(OC)cc2)nc1C	-0.385
C=CCNC(=O)c1onc(CSc2cccc(OC)c2)c1C(=O)O	-0.0506
CCc1ccc(NC(=O)c2cc(-c3ccc(OC)cc3)on2)cc1	-0.237
COc1ccc(OC)c(NC(=O)C2CCCNC2=O)c1 (stereo not drawn)	-0.395
Cc1ccc(NC(=O)Cc2nn(C)c(=O)c3ccccc23)cc1F	-0.587
O=C(NCN1C(=O)C2C3C=CC(C3)C2C1=O)Nc1ccccn1 (stereo not drawn)	0.599
Clc1ccc(-n2ncc3c(N4CCCC4)ncnc32)cc1	-0.394
Cc1c(NC(=O)c2c(NC(=O)CNC3CC3)sc3c2CCCC3)c(=O)n(-c2ccccc2)n1C	-0.106
CCOC(=O)c1cc(-c2ccccc2)n(CCC(=O)O)c1C	-0.15
CCOC(=O)N1CCC(NC(=O)CCc2nc(-c3ccc(C)cc3)no2)CC1	0.526
C=CCOc1c(CNc2ncn[nH]2)cccc1OCC	0.764
Cc1cc(O)c(C(C)C)cc1NC(=O)c1ccccc1Cl	-0.091
CCC(=O)NCCn1c(C)cc2ccccc21	0.729
CCOC(=O)c1c(C)[nH]c(C(=O)COC(=O)/C=C/c2cccc(OC)c2OC)c1C	-0.256
O=C(CN1CCCCC1)Nc1cccc([N+](=O)[O-])c1	0.328
Oc1ccccc1-c1cc(-c2ccco2)[nH]n1	-0.734
COc1ccc(C(=O)Nc2ccc(C)cc2C(=O)c2ccccc2)c(OC)c1	0.218

SMILES	z-score
O=C(NCCc1ccccn1)c1cc(C(=O)C2CCCCC2)c[nH]1	0.0693
C(=N\n1cncn1)/c1ccc(N2CCOCC2)cc1	-0.119
C/C(CC(=O)Nc1ccccc1-c1ccccc1)=N\NC(=O)COc1ccc(C)cc1Br	0.458
CC(=O)Nc1ccc(C(=O)N(C)C(C(=O)Nc2ccccc2)c2ccccn2)cc1 (stereo not drawn)	0.635
Cc1ccc(C(=O)NC(C)CCc2ccccc2)cc1[N+](=O)[O-] (stereo not drawn)	-0.352
Cc1oc(/C=N/NC(=O)CN(c2ccccc2Br)S(C)(=O)=O)cc1Br	-0.262
Cc1c(C=NCCOCc2ccccc2)cnn1C	0.0147
COCCNC(=O)c1ccc(-n2c(SCc3cc(F)ccc3F)nc3ccccc3c2=O)cc1	-0.0902
CCOC(=O)/C=c1\s/c(=C(\C#N)C(=O)NC)n(-c2ccccc2)c1=O	-0.21
COC(=O)Cn1cnc2c(nnn2-c2ccc(C)cc2)c1=O	0.00874
O=C(c1ccco1)N1CCN(S(=O)(=O)c2ccc3[nH]c(=O)oc3c2)CC1	0.249
O=C(N/N=C/c1ccc(Cl)cc1Cl)C1CCN(c2ncc(C(F)(F)F)cc2Cl)CC1	-0.1
COc1ccccc1-c1cn(S(=O)(=O)c2ccc(F)cc2)nc1N	-0.214
O=C(Cn1cc(/C=N/NC(=O)c2cccc(C(F)(F)F)c2)c2ccccc21)Nc1ccc(F)cc1	1.03
Nn1c(SCC(=O)NC2CCCCC2)nnc1-c1ccc(Cl)cc1	-0.266
O=C(CCc1nc(-c2ccccc2F)no1)NCCN1CCOCC1	-0.538
COCCCn1cnc2oc3nc4ccccc4nc3c2c1=O	-0.531
Cc1nnc2sc(-c3cccc(NC(=O)c4ccc(-c5cccc(Cl)c5)o4)c3)nn12	-0.956
CCn1c(SCC(=O)OC)nnc1C1CCCCC1	-0.0306
CN(C)c1ccc(NC(=O)Oc2ccccc2)cc1	-0.0391
COC(=O)c1ccc(CSc2nnc(NC(=O)c3cc4c(s3)CCCC4)s2)cc1	0.19
CCCC(=O)Nc1cc(-c2nn(C)c(=O)c3ccccc23)ccc1N1CCCCC1	-1.86

SMILES	z-score
Cc1cc(C)c(C(=O)CSc2nnc(-c3cccnc3)n2C)c(C)c1	0.116
COc1ccc(Oc2ccccc2/C=N/O)cc1	-1.04
O=C1CC(=O)C(n2cncn2)C(c2ccc(Cl)cc2Cl)C1 (stereo not drawn)	-0.101
Cc1sc(NC(=O)c2ccccc2)c(C(c2ccc(Cl)cc2)N2CCN(CCO)CC2)c1C (stereo not drawn)	-0.00152
Cc1cc(C)cc(NCc2cc(=O)oc3cc(-c4ccccc4)c(O)cc23)c1	-0.0758
COc1ccc(C(=O)NC2(C(F)(F)F)C(=O)N(Cc3ccco3)C3=C2C(=O)CC(C)(C)C3)cc1OC (stereo not drawn)	-0.0742
C=CCC(=O)OCC(=O)Nc1ccc(Cl)cn1	-0.0749
COc1ccccc1OCCn1c(CO)nc2ccccc21	0.573
COc1ccc2c(=O)c3c(=O)n(Cc4ccco4)c(-c4ccccc4)nc3oc2c1	-0.281
CC(=O)Nc1ccc(Nc2ncc([N+](=O)[O-])c(Nc3ccc(NC(C)=O)cc3)n2)cc1	-0.506
Cc1ccc(N)c(C(O)(C(F)(F)F)C(F)(F)F)c1	-0.164
COc1cccc(C(=O)N/N=C(/CCC(=O)O)c2ccccc2)c1	-0.189
COCCNC(=O)CN(C(=O)CCC(=O)Nc1cc(C)on1)c1cccc(C)c1C	-0.171
CCC(CC)NC(=O)c1ccc2c(c1)OCCO2	0.0376
Cc1cccnc1NC(=O)Cn1nc(-c2ccccc2)oc1=S	-0.605
O=C(CCNS(=O)(=O)c1cccs1)NCc1ccco1	-1.18
CCOC(=O)/C(C#N)=C/c1ccc(OC)c(OC)c1	-0.112
CCCNC(=O)N1CCN(S(=O)(=O)c2ccc(C)c(C)c2)CC1	-0.316
Cc1nc2ccc(-c3nc4cc(N)ccc4o3)cc2[nH]1	0.679
Cc1csc(SCC(=O)Nc2cccc(S(=O)(=O)N3CCCC3)c2)n1	0.0422
